Target: His6-WRN, full length purified (human, UniProt Q14191 1-1432)
Experiment: cell-based or functional assay

UniProt Q14191, sequence (Q14191 whole entry): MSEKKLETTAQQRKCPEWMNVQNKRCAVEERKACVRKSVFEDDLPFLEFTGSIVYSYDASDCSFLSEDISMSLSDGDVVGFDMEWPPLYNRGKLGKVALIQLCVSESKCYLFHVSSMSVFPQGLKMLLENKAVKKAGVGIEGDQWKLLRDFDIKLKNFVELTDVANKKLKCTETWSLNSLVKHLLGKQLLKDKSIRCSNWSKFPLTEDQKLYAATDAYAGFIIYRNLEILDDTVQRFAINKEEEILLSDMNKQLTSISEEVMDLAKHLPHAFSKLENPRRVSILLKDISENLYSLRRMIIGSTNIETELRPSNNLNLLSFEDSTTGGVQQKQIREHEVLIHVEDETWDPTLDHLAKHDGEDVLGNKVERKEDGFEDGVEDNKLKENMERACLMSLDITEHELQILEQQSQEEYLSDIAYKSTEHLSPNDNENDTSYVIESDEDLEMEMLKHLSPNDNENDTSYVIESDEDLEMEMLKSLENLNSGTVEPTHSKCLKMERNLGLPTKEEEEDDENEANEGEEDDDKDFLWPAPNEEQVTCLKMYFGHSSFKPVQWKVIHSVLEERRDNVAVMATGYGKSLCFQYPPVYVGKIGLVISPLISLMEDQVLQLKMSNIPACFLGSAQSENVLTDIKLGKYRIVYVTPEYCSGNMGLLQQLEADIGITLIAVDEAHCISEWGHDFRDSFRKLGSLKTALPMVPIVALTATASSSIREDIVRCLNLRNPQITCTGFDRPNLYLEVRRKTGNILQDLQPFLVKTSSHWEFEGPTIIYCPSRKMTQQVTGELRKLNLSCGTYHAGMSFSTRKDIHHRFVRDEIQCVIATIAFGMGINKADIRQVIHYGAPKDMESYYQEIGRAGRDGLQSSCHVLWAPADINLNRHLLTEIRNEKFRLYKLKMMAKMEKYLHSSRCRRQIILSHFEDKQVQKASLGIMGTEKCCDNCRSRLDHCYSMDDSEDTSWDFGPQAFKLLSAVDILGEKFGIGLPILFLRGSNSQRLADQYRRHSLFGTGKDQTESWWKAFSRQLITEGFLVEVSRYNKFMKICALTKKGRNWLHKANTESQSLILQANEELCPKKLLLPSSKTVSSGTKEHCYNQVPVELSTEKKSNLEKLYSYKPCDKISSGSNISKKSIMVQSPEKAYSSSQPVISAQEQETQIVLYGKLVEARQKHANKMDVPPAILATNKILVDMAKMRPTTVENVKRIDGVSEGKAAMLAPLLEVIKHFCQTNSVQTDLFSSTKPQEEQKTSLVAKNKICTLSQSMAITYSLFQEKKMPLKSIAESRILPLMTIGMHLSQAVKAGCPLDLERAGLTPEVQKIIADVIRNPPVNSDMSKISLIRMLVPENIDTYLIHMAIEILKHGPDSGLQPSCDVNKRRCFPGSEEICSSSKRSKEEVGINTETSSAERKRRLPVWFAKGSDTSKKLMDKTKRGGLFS

inhibition of WRN helicase unwinding of a 22 base pair partial duplex fork substrate, RGG fragment at molar ratios of 10:1 (over 60%) to 25:1 vs WRN: 90%
B1: GST-nucleolin RGG fragment (domain or fragment)
chain: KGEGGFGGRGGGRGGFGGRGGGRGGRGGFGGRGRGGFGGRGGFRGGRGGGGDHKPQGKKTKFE
modifications: GST tag omitted. Limits are not printed: from after RRM 4 to the C-terminus (the paper numbers the C-terminus 707, the entry 710)

Reference: PMC3366963, “Nucleolin Inhibits G4 Oligonucleotide Unwinding by Werner Helicase” (PLoS ONE, 2012)
